Source: PMC11856857, “Protease-Resistant, Broad-Spectrum Antimicrobial Peptides with High Antibacterial and Antifungal Activity” (Life, 2025)

Experiments:
Settings in all cases: broth microdilution, 1024 to 0.125 µg/mL, triplicate
P. aeruginosa ATCC 27853 = type: cell-based, Pseudomonas aeruginosa
S. aureus ATCC 29213 = type: cell-based, Staphylococcus aureus
E. coli ATCC 25922 = type: cell-based, Escherichia coli

“RLLRLLLRLLR [D/L-TN6, TN6 template, arginine in L-form, leucine in L- and D-forms]” was tested, and the “MIC P. aeruginosa” value (P. aeruginosa ATCC 27853) was 16 µg/mL, the “MIC S. aureus” value (S. aureus ATCC 29213) was 8 µg/mL and the “MIC E. coli” value (E. coli ATCC 25922) was 8 µg/mL.
